# According to PubChem BioAssay AID504444 (National Center for Advancing Translational Sciences (NCATS), 2011):
# In all, about 360,000 compounds went through this assay and about 7,500 (2.1%) were called active. Inconclusive results (about 20%) are left out. Calls follow the shape of the dose curve; as a rule, active = well fitted inhibition curve with a large enough effect; inconclusive = small, poorly fitted or top-dose-only effect, or effect the other way; inactive = flat fitted curve, though single readings scatter. The list shows a part of the results, in another mix than the full data. Some compounds were tested as several samples or in several runs, with calls that do not always agree.
# Test: Nrf2 qHTS screen for inhibitors; also: nearly all actives have a fitted effect of over 60% in size
# Conditions: A549 ARE-Fluc reporter, luciferase luminescence, 18-24 h; series mostly up to 46 µM; activity change, negative = inhibition: at the top concentration
# Description: NIH Molecular Libraries Probe Production Network [MLPCN]
# NIH Chemical Genomics Center [NCGC]
# Assay Provider: Shyam Biswal, Johns Hopkins University
# Nrf2 is a transcription factor that maintains cellular redox homoestasis and protects cells from xenobiotics. Nrf2 binds to the antioxidant response element (ARE) to induce gene expression of a broad spectrum of genes that encode for antioxidants. […] Finding a small molecule that act as an inhibitor of Nrf2 function would represent a novel therapeutic target that could lead to improvement in survival of patients undergoing chemo- and/or radio- therapy.
# This is the Nrf2 activity measured in the luminescent read.
# 1. Shibata, T., et al., Genetic Alteration of Keap1 Confers Constitutive Nrf2 Activation and Resistance to Chemotherapy in Gallbladder Cancer. Gastroenterology, 2008.
# 2. Sjoblom, T., et al., The consensus coding sequences of human breast and colorectal cancers. Science, 2006. 314(5797): p. 268-74.
# NCGC Assay Protocol Summary:
# A concentration-response assay was performed with A549 ARE_Fluc cells which are suspended in 5% FBS OPTI-MEM. Five uL were dispensed into 1536-well white TC-treated plate using the Kalypsys dispenser to achieve a density of 5000 cells/well in all columns except column 1. The plate is incubated at 37deg C at 5% CO2 for 2 hours before 23 nL of compounds are added with the Kalypsys pin tool equipped with a 1,536-pin array containing 10-nL slotted pins (FP1S10, 0.457-mm diameter, 50.8 mm long; V&P Scientific). The control compounds Budesonide and Staurosporine are both added at a concentration of 2mM and Budesonide is also added as a 1:10 titration, starting at 200uM, to achieve dose-response. After an 18-24 hour incubation at 37deg C at 5% CO2, 5ul of medium is added to column 1. Afterwards 1ul of 5x of CellTiter-Fluor (Promega) is added to every well. The plate is then incubated at 37deg C at 5% CO2 for 30 minutes before they are read on the ViewLux (Perkin Elmer) for a fluorescent read Ex=405(10)/Em=525(10) for a 3 second exposure, 2x binning, and high gain. Then 3 uL of 3x BugLite is dispensed into all wells and the plate is incubated at ambient room temperature for 15 minutes. Afterwards another ViewLux read is performed using the clear filter to get a luminescent read with the settings of 40 second exposure, 2x binning, and high gain. Cytotoxicity is assessed through the first fluorescent read and then biochemical activity against Nrf2 is measured in the luminescent read.
# % is scaled to controls: 0 for no effect and ±100 for the full control effect; potency is read from the fitted curve at half-maximal effect.
SMILES,"activity change, negative = inhibition",Potency
CN(C)C1C(=O)C(C(N)=O)=C(O)C2(O)C(=O)C3=C(O)c4c(O)cccc4C(C)(O)C3C(O)C12 (configuration not stated),inactive: 7.04%,
C[C@]12C[C@H](O)[C@@H](O)CC1=CCC1C2CC[C@@]2(C)C1CC[C@@H]2O (some centres not stated),inactive: -0.895%,
C[C@@H]1O[C@@H](Oc2c(-c3ccc(O)c(O)c3)oc3cc(O)cc(O)c3c2=O)[C@H](O)[C@H](O)[C@H]1O,inactive: 6.98%,
COc1cc2c(c(OC)c1OC)-c1ccc(O)c(=O)cc1[C@@H](NC(C)=O)CC2,inactive: 2.51%,
CCCNS(=O)(=O)c1ccc(OCC(=O)N2CCN(Cc3ccc4c(c3)OCO4)CC2)cc1,,active: 8.2 µM
O=C1NC(=O)N(Cc2ccccc2)C(=O)/C1=C/C=C/c1ccco1,inactive: -11.8%,
COC1=CC(=O)[C@]2(C=C1OC)OC[C@@H]1Oc3c(ccc4c3C=CC(C)(C)O4)C(=O)[C@@H]12,,active: 0.651 µM
COc1ccc(OCC(=O)N2CCN(Cc3ccc(SC)cc3)CC2)cc1,inactive: -8.69%,
Cc1ccc(-c2nn3c(C)nnc3c3ccccc23)cc1S(=O)(=O)NCCO,inactive: -22.3%,
O=[N+]([O-])c1ccc(C2C3C(c4ccccc4)=NC4(CCCCC4)N32)cc1 (configuration not stated),inactive: -7.33%,
COC(=O)C1=C(c2ccc(F)cc2OCc2ccccc2)C[C@@H]2CC[C@H]1N2C(=O)NC1Cc2ccccc2C1,,active: 16.4 µM
O=C(O)CC1OCC=C2CN3CCC45C6=CC(=O)C(=O)C([N+](=O)[O-])=C6NC4C1C2CC35 (configuration not stated),inactive: -12.5%,
Cc1ccccc1-n1c(/C=C/c2c(C)[nH]c3ccccc23)nc2ccccc2c1=O,,active: 20.6 µM
C[C@]12CC[C@H](O)C[C@H]1CC[C@@H]1C2CC[C@]2(C)[C@@H](C3=CC(=O)OC3)[C@@H](O)C[C@]12O (some centres not stated),,active: 1.84 µM
Cc1cc(C)cc(N2C(=O)NC(=O)/C(=C\c3cccn3-c3ccc(Cl)cc3)C2=O)c1,inactive: 6.43%,
COc1cc(C2c3cc4c(cc3CC3COC(=O)C32)OCO4)cc(OC)c1O (configuration not stated),inactive: -5.04%,
CSc1ccc(CN2CCN(C(=O)COc3cccc(C)c3)CC2)cc1,inactive: -19.1%,
CN(C)P1(N(C)C)=Nc2c(c(N)nn2C)C(c2ccccc2)=N1,inactive: 15.2%,
Oc1ccccc1-[n+]1c(-c2ccccc2)cc(-c2ccccc2)cc1-c1ccccc1,inactive: -0.731%,
CCC12C=CCN3CCC4(c5cc(Br)c(OC)cc5N(C)C4C(O)(C(=O)OC)C1OC(C)=O)C32 (configuration not stated),inactive: -22.9%,
C=C[C@H]1CN2CC[C@H]1C[C@H]2[C@H](O)c1ccnc2ccccc12,inactive: 19.1%,
NC(N)=NC(=O)c1nc(Cl)c(N)nc1N,,inactive
O=C(Nc1cccc(Cl)c1)c1cnc2sc(N3CCCC3)nn2c1=O,,active: 5.17 µM
O=C1NC2C(=CC(O)C(O)C2O)c2cc3c(cc21)OCO3 (configuration not stated),,active: 2.06 µM

SMILES,"activity change, negative = inhibition",Potency
O=C1C=C2C=C[C@H]3C[C@]2(O1)[C@@H]1CCCCN13,inactive: -29.2%,
c1cc2c(cc1[C@H]1OC[C@H]3[C@@H]1CO[C@@H]3c1ccc3c(c1)OCO3)OCO2,inactive: -20%,
CC(C)c1ccc(N2C(=O)NC(=O)/C(=C/c3cnc(-c4ccccc4)nc3)C2=O)cc1,inactive: 11.9%,
O=C1/C(=C\c2ccc([N+](=O)[O-])cc2)N2CCC1CC2,inactive: 21.7%,
COc1ccc(CNC(=O)Cn2c(=O)oc3cc(S(=O)(=O)N4CCCC4)ccc32)cc1,inactive: -23.7%,
Cc1cccc(N2CCN(C(=O)CCS(=O)(=O)c3ccc4c(c3)oc(=O)n4C)CC2)c1C,inactive: -27.4%,
O=C1NC(=O)N(c2ccc3c(c2)OCO3)C(=O)/C1=C\c1ccc(N2CCCCC2)o1,inactive: -16.1%,
C[C@H]1C=CC(=O)O[C@H]1c1ccccc1,inactive: 4.49%,
Cn1c(=O)oc2cc(S(=O)(=O)CCC(=O)N3CCN(c4ccccc4)CC3)ccc21,inactive: -7.27%,
CC(C)C[C@H]1C(=O)N2CCCC2[C@]2(O)O[C@](NC(=O)[C@@H]3C=C4c5cccc6[nH]cc(c56)CC4N(C)C3)(C(C)C)C(=O)N12 (some centres not stated),inactive: -29.4%,
CC(CNC(=O)CCS(=O)(=O)c1ccc2c(c1)oc(=O)n2C)c1ccccc1 (configuration not stated),inactive: -2.44%,
CC(=O)OC1C(=O)OCC23CCC4(C)OC4C2OC2CC(OC(=O)C=CC=CC(=O)OCCC1C)C3(C)C21CO1 (configuration not stated),,active: 0.0164 µM
CC(C)CCNC(=O)c1c(N)n(Cc2ccc3c(c2)OCO3)c2nc3ccccc3nc12,,active: 20.6 µM
COC(=O)C1=C(c2ccccc2OCc2ccccc2)C[C@@H]2CC[C@H]1N2C(=O)NCc1ccc(F)cc1,,active: 23.1 µM
Cc1ccc(/C=C2\C(=O)NC(=O)N(CCc3ccc(F)cc3)C2=O)s1,inactive: 23.3%,
O=C(NN1C(=O)C2C3C=CC([C@H]4CC34)[C@@H]2C1=O)c1ccc(Br)cc1 (some centres not stated),inactive: -12.9%,
COC(=O)[C@H](Cc1ccccc1)N(Cc1ccccc1)S(=O)(=O)N(Cc1ccccc1)[C@@H](Cc1ccccc1)C(=O)OC,inactive: -28.5%,
COc1ccc(-n2c(/C=C3\C(=O)Nc4ccccc43)nc3ccccc3c2=O)cc1,inactive: -27.5%,
CC(=O)O[C@@]12CO[C@@H]1C[C@@H](O)[C@@]1(C)C(=O)[C@H](O)C3=C(C)[C@@H](OC(=O)[C@H](O)[C@@H](NC(=O)c4ccccc4)c4ccccc4)C[C@@](O)([C@@H](OC(=O)c4ccccc4)C12)C3(C)C (some centres not stated),inactive: -7.36%,
Cc1cc(/C=C2/C(=O)NC(=O)N(c3ccc(Br)cc3)C2=O)c(C)n1C,inactive: 1.82%,
COc1ccc(CCCc2nnc(SCC(=O)Nc3ccc(C)c(C)c3)o2)cc1,inactive: -23.1%,
CN1/C(=C\C=Nc2ccccc2)C(C)(C)c2ccccc21,inactive: -29%,
COc1ccccc1CN1CCN(C(=O)COc2cccc(C)c2)CC1,inactive: 12.7%,
C[C@@H]1CN([C@@H](C)CO)C(=O)c2cccc(NC(=O)c3ccncc3)c2O[C@@H]1CN(C)Cc1ccc(-c2ccccc2)cc1,inactive: -7.05%,

SMILES,"activity change, negative = inhibition",Potency
COc1ccc(-c2cc(=NCCCCCC(=O)O)c3cc(C)ccc3o2)cc1,inactive: -1.77%,
Cn1c(O)c(C(=Nc2ccccc2)SCc2ccc(Cl)cc2)c(=O)n(C)c1=O,,active: 23.1 µM
CCCc1cc(N2CCN(c3ccc(OC)cc3)CC2)n2cnnc2n1,,active: 11.6 µM
Cc1cccc(N2C(=O)NC(=O)/C(=C/c3ccc(N4CCOCC4)cc3)C2=O)c1,inactive: 1.12%,
O=C1/C(=C/c2ccc3c(c2)OCO3)N2CCC1CC2,inactive: 10%,
COc1cccc(N2CCN(c3c4c(nc5nncn35)CCC4)CC2)c1,,active: 16.4 µM
CCC1C2CC3C4N(C)c5ccccc5C45CC(C2C5O)N3[C@@H]1O (some centres not stated),inactive: 0.12%,
O=C1N[C@@H](Cc2ccccc2)C(=O)N2[C@H]1C[C@H]1c3ccccc3N(OOSc3ccccc3)[C@H]12,inactive: -8.52%,
CN(C)[C@@H]1C(=O)C(C(N)=O)=C(O)[C@@]2(O)C(=O)C3=C(O)c4c(O)cccc4[C@@](C)(O)[C@H]3[C@H](O)[C@@H]12,,inactive
CCN(CC)P(=O)(NC(=O)C(Cl)(Cl)Cl)N(CC)CC.[Cl-].[Cl-].[Cl-].[Nd+3],inactive: -6.08%,
[Cl][Pt+2][Cl].[NH-]C1CCCCC1[NH-] (configuration not stated),inactive: -0.0262%,
O=C1NC(=O)N(Cc2ccccc2)C(=O)/C1=C\C=C\c1ccco1,,active: 25.9 µM
CN(C)[C@@H]1C(=O)C(C(N)=O)=C(O)[C@@]2(O)C(=O)C3=C(O)c4c(O)cccc4[C@@](C)(O)C3[C@H](O)C12 (some centres not stated),inactive: -1.79%,
COC(=O)[C@@]12CCCCN1[C@H](c1ccc(-c3ccc(Cl)c(Cl)c3)c(OC)c1)[C@H]1C(=O)N(C)C(=O)[C@H]12,inactive: -0.86%,
COC(COC(N)=O)C1=C(N2CC2)C(=O)C(C)=C(N2CC2)C1=O (configuration not stated),,active: 2.06 µM
COc1cccc2c1cc([N+](=O)[O-])c1c(C(=O)O)cc3c(c12)OCO3,,active: 11.6 µM
Cc1ccc(C)c(N2CCN(C(=O)CCS(=O)(=O)c3ccc4c(c3)oc(=O)n4C)CC2)c1,inactive: -29.8%,
C[C@]12CCC(=O)C=C1CC[C@@H]1C2[C@H](O)C[C@]2(C)C(=O)CCC12 (some centres not stated),inactive: -18.6%,
COc1ccc(CCNC(=O)c2ccc3c(c2)N=C(C)c2cc(C)ccc2S3)cc1OC,,active: 14.6 µM
C=CC1CN2CCC1CC2C(O)c1ccnc2ccccc12 (configuration not stated),inactive: 0.502%,
O=C(C1CCCN(S(=O)(=O)c2cccc3nsnc23)C1)N1CCN(c2cccc(Cl)c2)CC1 (configuration not stated),,active: 20.6 µM
C[C@]12CCC(=O)C=C1CC[C@@H]1[C@@H]2CC[C@@]2(C)[C@H]1CC[C@]2(C)O,inactive: -20.2%,
N#CC(=C(O)c1ccc(S(=O)(=O)N(CCCl)CCCl)cc1)c1nc2ccccc2[nH]1,inactive: -5.27%,
Cc1c(C(c2ccc(Cl)cc2Cl)c2c(O)c3ccccc3oc2=O)c(=O)n(-c2ccccc2)n1C (configuration not stated),inactive: -6.84% [at 9.27 µM],
